# Measured values as given in PubChem BioAssay AID743279 (National Center for Advancing Translational Sciences (NCATS), 2014).
# About 17,000 (4.7%) of roughly 360,000 compounds were called active. The inconclusive results got no clear call from the source; some entries with a clear call stand among them for comparison. Cut-off read from the data, not from the text of the source: active = activity change below about -50%; inconclusive = mostly about -30% to -49%; inactive = weaker than that.
# Test: qHTS for Inhibitors of Inflammasome Signaling: IL-1-beta AlphaLISA Primary Screen
# Details: THP-1 LPS/ATP IL-1B secretion, 16 h; at 57.5 µM, stronger effect = lower value
# In short: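 Secreted IL-1B measured by AlphaLISA bead assay after 16 h compound exposure of THP-1 cells; compounds (final up to 57.5 uM) added 1 h before LPS (250 ng/mL) and ATP (1.25 mM) stimulation; lower signal means less secretion.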
# % is set by controls: 0 for no effect and ±100 for the full control effect.
row,SMILES,activity change
1,O=C(Nc1ccn(CCCNCC(c2ccccc2)c2ccccc2)c(=O)n1)OCc1ccccc1,inconclusive: -35.4%
2,Cc1cc(=O)[nH]c(N/N=C/c2cc(C)n(-c3ccccc3)c2C)n1,inconclusive: -37.6%
3,COc1ccc2c(c1)C1OCCC1C(c1ccco1)N2 (stereo not drawn),inconclusive: -30.4%
4,O=C(Nc1ccc2c(c1)OCCO2)c1cccc2nc3ccccc3nc12,inconclusive: -43.2%
5,C=CCn1c(SCc2csc(C)n2)nc2sc3c(c2c1=O)CCC(C)C3 (stereo not drawn),inactive: -15.3%
6,Cc1cccc(NCc2cc(Cl)cc(Cl)c2O)n1,active: -50.5%
7,CN(C)c1ccc(N=Nc2ccccc2C(=O)OCC(=O)NC2CCCC2)cc1,inconclusive: -33.8%
8,CS(=O)(=O)N1CCC(C(=O)Nc2ccc(Cl)c(Cl)c2)CC1,inconclusive: -32.1%
9,CCN(c1ccccc1)S(=O)(=O)c1ccc(OC)c(NC(=O)CNCCc2ccccc2)c1,inconclusive: -35.8%
10,N#Cc1nc(COc2ccc(-c3ccccc3)cc2)oc1NCCCN1CCOCC1,inconclusive: -43.8%
11,COc1cccc(CNC(=O)CSCc2cnn(-c3ccccc3)c2-n2cccc2)c1OC,inconclusive: -34.2%
12,CCN(CC)CC#CCC(O)(c1ccccc1)C1CCCCC1 (stereo not drawn),inconclusive: -34.6%
13,COc1ccc(S(=O)(=O)N2CCOCC2)cc1NC(=O)c1cccc(Cl)c1,inactive: 22.5%
14,O=C(CCC1CCCC1)NNC(=O)c1cccc(Cl)c1,inactive: -11.4%
15,CCN(CC(=O)Nc1ccc2c(c1)OCO2)CC(=O)Nc1ccccc1C(F)(F)F,inconclusive: -33.7%
16,Cc1ccc(F)c(S(=O)(=O)NC(=O)C2(C)CCN2C(=O)Cc2ccccc2)c1 (stereo not drawn),inactive: 97.9%
17,O=C(NCc1ccc(F)c(F)c1)c1cccc2c(-c3cccnc3)coc12,active: -63.2%
18,CC(C)n1c(SCC(=O)Nc2ccccc2N2CCCCC2)nc2c1c(=O)n(C)c(=O)n2C,inconclusive: -30.1%
19,CCOC(=O)c1c(C)[nH]c(C(=O)OCC(=O)Nc2sccc2C(N)=O)c1C,active: -71%
20,CC(=O)N1CCN(Cc2nc3cc(NC(=O)NC4CCCCC4)ccc3n2C)CC1,inactive: 17.9%
21,COc1cccc2cc(CC(=O)c3ccc(C)c(C)c3)c(=O)oc12,inconclusive: -32.8%

row,SMILES,activity change
1,O=C(CSc1nnc(Cc2csc(Nc3cccc(Cl)c3)n2)o1)N1CCc2ccccc21,inconclusive: -36%
2,N#CCSc1nnc(COc2cccc3ccccc23)n1-c1cccc(Cl)c1,inconclusive: -48.9%
3,CCOC(=O)c1sc(-c2ccc(OC)cc2)cc1N,inconclusive: -40%
4,COc1ccc(N2CCN(C(=O)Cc3nn(C)c(=O)c4ccccc34)CC2)cc1,inactive: 57.9%
5,Cc1ccc(C2(C)NC(=O)N(CC(=O)NC3CCCCC3)C2=O)cc1 (stereo not drawn),inactive: -18.2%
6,CCOC(=O)c1ccc(N=c2ssnc2Cl)cc1,active: -89.4%
7,C=C1C(=O)c2sccc2C(c2ccc(OC)c(OC)c2)C1COC(C)=O (stereo not drawn),active: -101%
8,O=C(/C=C/c1cccc([N+](=O)[O-])c1)NC(=S)Nc1cccc(NC(=O)c2ccccc2Cl)c1,inconclusive: -39.5%
9,COc1ccc(/C=C/C(=O)Nc2c(C)nn(C)c2C)cc1COc1ccc(Cl)cc1Br,inconclusive: -34.9%
10,COc1ccc(C2=NN(c3ccccc3)C(c3ccc(OC)c(OC)c3)C2)cc1 (stereo not drawn),inactive: 0%
11,CC1(C(=O)NCc2ccccc2Br)CCN1C(=O)CCc1ccc(Cl)cc1Cl (stereo not drawn),inconclusive: -31.5%
12,COc1cc(/C=C/C(=O)OCC(=O)Nc2ccccc2Sc2ccc(Cl)cc2)ccc1O,inconclusive: -32.9%
13,O=C(Nc1cc2c3c(c1)CC(=O)N3CCC2)c1ccc(Br)cc1,inconclusive: -33.6%
14,COc1ccc(CCNC(=O)[C@H](C)N2C(=O)N3CCc4c([nH]c5ccccc45)[C@@]3(C)C2=O)cc1,inconclusive: -31%
15,O=c1cc(-c2ccccc2)cc(-c2ccccc2)n1CCO,inconclusive: -34.8%
16,O=C(O)CN1C2=NCCCN2c2ccccc21,inactive: 20.9%
17,CCOc1ccc(N(C(=O)c2snc(C(N)=O)c2N)C(C)C(=O)NC2CCCCC2)cc1 (stereo not drawn),inconclusive: -49.1%
18,COc1cc(/C=C2\S/C(=N/S(=O)(=O)Cc3ccccc3)NC2=O)c([N+](=O)[O-])cc1OC,inactive: -20.8%
19,COc1ccc(C(=O)NCC(=O)N/N=C/c2c(C)[nH]c3ccccc23)cc1OC,inactive: -6.73%
20,CCc1ccccc1NC(=O)c1ccc(-n2c(C)ccc2C)cc1,active: -83.2%
21,COc1ccc2nc(-c3ccc(N)cc3)[nH]c2c1,inconclusive: -37.7%

row,SMILES,activity change
1,O=C(NCc1ccccc1Cl)c1ccc2c(=O)n(CC3CCCO3)c(=S)[nH]c2c1 (stereo not drawn),inconclusive: -42.5%
2,Cc1ccc(NC(=O)CN(C)C(=O)C(C)OC(=O)CNC(=O)c2ccc(Cl)c([N+](=O)[O-])c2)cc1 (stereo not drawn),inconclusive: -47.5%
3,COC(=O)c1ccc(C(=O)NC(=S)Nc2nc3c(s2)CCCC3)cc1,inactive: 29.2%
4,O=C(c1ccccc1)c1nc[nH]c1C(=O)Nc1ccccn1,inconclusive: -31.2%
5,COc1ccc(C(O)c2ncc(-c3ccccc3Cl)[nH]2)cc1F (stereo not drawn),inconclusive: -32.5%
6,CN(C)c1nc(N(C)C)nc(N(C#N)CN2C(=O)c3ccccc3S2(=O)=O)n1,inactive: 10.2%
7,COc1cccc(C=O)c1OCCN1C(=O)c2ccccc2C1=O,inactive: 0%
8,Cc1ccc(/C=C/C(=O)c2nc3ccccc3[nH]2)cc1,inconclusive: -39%
9,C[C@@H](C(=O)Nc1ccc2ccccc2c1)[C@H]1C[C@]1(C)[C@H](NC(=O)OCc1ccccc1)c1ccccc1,inconclusive: -36%
10,CC(C)c1cccc(-c2csc(C(C)(O)c3ccc(F)c(F)c3)n2)c1 (stereo not drawn),inconclusive: -35%
11,OC(CNCCC1C=Nc2ccccc21)Cn1c2ccc(Cl)cc2c2cc(Cl)ccc21 (stereo not drawn),active: -110%
12,CCC(c1nc2ccccc2[nH]1)n1c(-c2cnccn2)nc2ccccc21 (stereo not drawn),inconclusive: -37.8%
13,CCN(CC)C(=O)[C@H]1C[C@H](CC(=O)NC/C=C(\C)CCC=C(C)C)C(=O)N2CCc3c([nH]c4cc(CCC(=O)N(C)C)ccc34)[C@]12C,inconclusive: -46.8%
14,O=C(C[C@H]1C(=O)N(CCc2ccccc2)C[C@@H]1Cc1ccccc1)Nc1ccc(Br)cc1,inconclusive: -34.3%
15,CCc1ccc(S(=O)(=O)N2CCN(c3ccccc3OC)CC2)cc1,inactive: -12.1%
16,CCCCCCN1C[C@@H](n2cc(-c3ccc(F)cc3)nn2)[C@H](O)C[C@@H]1c1ccc(OC)cc1,inconclusive: -44.2%
17,Cc1cc(C)cc(-n2c(SCC(=O)Nc3cccc(S(=O)(=O)NC4=NCCCCC4)c3)nc3ccccc3c2=O)c1,inactive: -21.1%
18,COc1ccc(S(=O)(=O)N2CCC(C(=O)NCC3CC3)CC2)cc1,inactive: 2.5%
19,O=C(C[n+]1cc(-c2ccccc2)n2c1CCCCC2)c1ccc(Cl)cc1,active: -76%
20,Cc1sc2nc(COC(=O)C(NC(=O)c3ccc(Cl)cc3Cl)C(C)C)[nH]c(=O)c2c1C (stereo not drawn),inconclusive: -38.8%
21,CN(CC(=O)Nc1ccc(Cl)c(C(F)(F)F)c1)C(=O)Cc1cccs1,inconclusive: -43.9%

row,SMILES,activity change
1,CCN(C(=O)COC(=O)c1ccc2[nH]c3c(c2c1)CCCC3)C1CCS(=O)(=O)C1 (stereo not drawn),inconclusive: -32.4%
2,Cc1cc(OCC(=O)NCc2ccncc2)c2c(C)cc(=O)oc2c1,inactive: 3.92%
3,COc1ccc(CN(C)C(=O)CNC(=O)c2sc3ccccc3c2Cl)c(OC)c1,inconclusive: -30.8%
4,N#Cc1ccc(CSc2nnc3ccccn23)cc1,inconclusive: -35.2%
5,Cc1cc2c3c(c1)C(C)(c1ccccc1)CC(C)(C)N3C(=O)C21C(C#N)=C(N)OC2=C1C(=O)CC(C)(C)C2 (stereo not drawn),inconclusive: -32.3%
6,CCN(Cc1nc2ccccc2c(=O)[nH]1)C(=O)COc1ccccc1Cc1ccccc1,active: -67%
7,COc1ccc(-c2c(-c3ccc(C#N)cc3)oc(=O)c3cc(OC)c(OC)cc23)cc1,inactive: -7.96%
8,Cc1c(N=Nc2c(-c3ccc([N+](=O)[O-])cc3)[nH]n(C(N)=S)c2=O)cccc1[N+](=O)[O-],inconclusive: -45.3%
9,Cc1cccc2sc(NC(=O)c3cc(S(=O)(=O)N(C)C)ccc3N3CCCC3)nc12,active: -124%
10,C[C@@H]1CN([C@@H](C)CO)C(=O)CCCn2nncc2CO[C@@H]1CN(C)C(=O)Nc1ccc2c(c1)OCO2,inactive: 2.53%
11,COc1ccc(NC(=O)/C(C#N)=C\C=C\c2ccco2)cc1,inactive: -22.1%
12,CC1=C(C(=O)Nc2cccc(C(=O)NCc3ccccc3C)c2)SCCO1,inconclusive: -45.1%
13,Cc1noc(C)c1NC(=O)NC(c1ccccc1)c1ccccc1,inactive: 27.7%
14,COc1ccc(/C=C/C(=O)c2ccc(C)c([N+](=O)[O-])c2)cc1O,inconclusive: -35.2%
15,O=C(Nc1cccc2ccccc12)c1cn(-c2ccccc2)nc1-c1cccs1,inconclusive: -33.4%
16,CCCC(=O)N1CCc2cc(-c3nc(N)sc3C)ccc21,inconclusive: -35.7%
17,O=S(=O)(c1ccccc1)N1CCC2(CC1)CO2,inactive: -7.6%
18,OCc1ccc(-c2cncc3nccn23)cc1,inactive: -7.4%
19,O=C(Cn1nc(Cc2cccnc2)c2ccccc2c1=O)Nc1ccc2c(c1)OCO2,inconclusive: -35.2%
20,COc1ccc(C(=O)/C=C/c2ccc(OC)c(COc3ccccc3F)c2)cc1,active: -89.7%
